From the supplement of paper PMC3334620
The full ranking holds about 33,000 sequences; the median of “E-score (-0.5 to 0.5)” is about -0.054, and the highest 2% start at about 0.35. Some of the results follow.

biological target: T1, Stb5 (UniProt P38699); test: PBM E-score (8-mer binding enrichment) (E-score (-0.5 to 0.5)); higher = stronger / more preferred TF binding; most listed sequences are background and not binding sites; conditions: protein concentration: 200 nM; construct: GST-full length
T1 sequence: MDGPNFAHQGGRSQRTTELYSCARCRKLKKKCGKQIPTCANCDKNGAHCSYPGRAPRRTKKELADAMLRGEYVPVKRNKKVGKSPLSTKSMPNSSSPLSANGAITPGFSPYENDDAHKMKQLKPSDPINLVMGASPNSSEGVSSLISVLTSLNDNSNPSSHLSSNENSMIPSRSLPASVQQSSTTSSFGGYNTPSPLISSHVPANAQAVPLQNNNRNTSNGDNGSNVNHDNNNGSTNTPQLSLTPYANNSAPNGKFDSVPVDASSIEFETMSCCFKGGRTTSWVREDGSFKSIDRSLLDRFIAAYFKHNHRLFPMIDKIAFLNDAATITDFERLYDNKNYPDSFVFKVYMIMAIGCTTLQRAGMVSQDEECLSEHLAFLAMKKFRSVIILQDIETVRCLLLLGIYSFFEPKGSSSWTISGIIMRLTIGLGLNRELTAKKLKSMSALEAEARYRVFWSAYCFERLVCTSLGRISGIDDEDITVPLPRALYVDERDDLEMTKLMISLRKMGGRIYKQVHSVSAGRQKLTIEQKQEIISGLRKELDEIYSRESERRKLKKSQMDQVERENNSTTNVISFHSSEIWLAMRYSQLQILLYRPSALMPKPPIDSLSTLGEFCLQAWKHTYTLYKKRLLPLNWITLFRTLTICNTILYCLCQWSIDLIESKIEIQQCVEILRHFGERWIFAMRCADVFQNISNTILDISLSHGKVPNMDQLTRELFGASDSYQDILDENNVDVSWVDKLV
Experimental: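 Universal 'all 10-mer' protein binding microarrays (Agilent AMADID 015681) probed with GST-tagged S. cerevisiae TFs (full-length or DBD) made by in vitro transcription/translation (PURExpress), about 100-200 nM. Bound TF was detected with fluorescent anti-GST. Each ungapped 8-mer (which stands for itself and its reverse complement) is scored by the PBM enrichment score (E-score), a modified Wilcoxon-Mann-Whitney statistic from -0.5 to +0.5, computed with the Universal PBM Analysis Suite. Scale: above 0.35 generally sequence-specific binding.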

Sequence	PBM E-score
AAGGCCGC	0.441
CGGTACCC	0.157
CCCAGCAG	-0.0202
AACTGGCA	-0.0464
CCGCATGC	0.219
AACTCAAT	-0.115
GCGAATAC	0.111
AACAATGG	-0.232
TAGACAAA	-0.188
AATGTTCG	-0.0151
CCAGGCCA	-0.312
CCGTCCCC	0.198
ATACTTTA	-0.105
ATCTCTAG	-0.12
CTGCATAC	-0.0473
CCCATTTC	-0.0367
AAATAGCT	-0.0851
GTGCGCTA	-0.0155
CTGTTCAA	-0.217
CACGCTTC	-0.212
CTATCATA	-0.14
AAACGACT	-0.0894
TATTTTGA	-0.0679
GCCATTTA	-0.0738

Sequence	PBM E-score
CAGCATCA	-0.107
ATGGGAAT	-0.0725
GCATGCCA	-0.138
TCGTCCAA	-0.0837
CAAAGGCA	-0.149
TTCCCCAA	-0.232
ACTATACT	-0.0742
CAAGTTAA	-0.201
ACGACGTA	-0.172
AACTACCT	-0.0653
ATACGGTG	0.226
CCGGTAAC	0.265
GCGCAACA	-0.0279
ATCAACAA	-0.261
ACGATGCC	-0.154
ATAAGTTG	-0.169
CTAAAGCC	0.228
AGGAAGTG	-0.165
GTACGTGA	-0.195
ATGAAATG	0.0192
GCGTCTTA	-0.118
GGCTGAAC	-0.0489
CCGACACC	0.348
CATTTACA	-0.153

Sequence	PBM E-score
CGCGCTTA	0.264
CTAGTTTA	-0.0735
AGGACGAG	-0.288
AAAGTGGA	-0.27
ACTCATAT	-0.0119
AATTGTGT	-0.128
GAGAGGCC	-0.0937
GGTTGATA	-0.0103
ACTTGACG	-0.1
CTTTGCGA	-0.0257
AAGGCCTA	-0.00904
ACCCTCTG	-0.213
CGTGTTAG	0.0849
GAAAGGTC	0.12
GCATGTTA	0.0557
CGAGGATC	-0.0526
AAGGGCTA	-0.133
GGGTGACC	-0.0307
CCTGGGAG	0.00102
AACTATAC	0.0236
AACGTTAC	-0.0366
GAAGATCA	-0.0909
GCGATGCA	-0.0128
GTCGCGAA	-0.154

Sequence	PBM E-score
ACCGACAT	0.322
ACCAAACC	-0.03
CGAACAGA	-0.129
AAGATCAC	-0.108
CCAGGCTC	-0.217
GCCAGGTA	-0.0503
GAGAGCCA	-0.174
CCGGGTTC	0.24
TATCCGAA	0.141
AGGCTAAA	-0.0452
CACCGTTA	0.367
AATGATTA	-0.189
AAGGATCC	-0.0877
CGTCTCGA	-0.237
GGCGACAC	0.176
CCGGCAAG	0.205
GTCTATGA	-0.0964
AAATATTG	0.0971
AGTTCATC	-0.183
GGCGGGTA	0.229
AAGGATGT	-0.249
CAAAACAA	-0.388
